# Assay results: US20250222125A1, “Anti-FGFR2b Antibodies, Conjugates and Methods of Use” (BeiGene, Ltd., priority 2024, published 2025)
# System: phosphorylated FGFR in SNU-16 cells
# Experiment: Inhibition of FGFR2 signaling in SNU-16 cells (Western blot of pFGFR)
# Assay type: cell-based
# Conditions: antibody 10 μg/ml, 2 hours
# Method: Inhibition of the FGFR2 signaling pathway by the humanized antibodies was investigated. SNU-16 cells were grown in RPMI-1640 medium with 10% FBS, collected and washed twice with free medium and then seeded in 12-well plates at 1.5E6 cells/well in serum-free RPMI-1640. The plates were incubated at 37° C., 5% CO2, and 95% humidity in an incubator overnight. Anti-FGFR2b antibodies at a concentration of 10 μg/ml were added to the assay plates. Recombinant human FGF7 or FGF10 protein (10 ng/ml) in the presence of heparin (5 μg/ml) was added to the assay plates. The plates were incubated in a 37° C., 5% CO2, 95% humidity incubator for 2 hours. Following 2 hours incubation, cells were collected and washed twice with cold PBS. NP40 lysis buffer containing 1×PMSF and 1× Protease plus phosphatase inhibitors were added to the cell pellets. The mixture was pipetted up and down to suspend the pellet. The mixture was inverted gently and each placed for 10 minutes on ice, for a total of 30 minutes. The mixture was centrifuged at 12000× rpm for 10 minutes to pellet the cell debris. The supernatant was transferred to a new tube to quantify total protein concentration by BCA Kit. The protein samples were then split and stored at −80° C. for further Western blotting to detect the expression of pFGFR and total FGFR2. […]
molecule,measurement,setting,value
"BGA2311: reference antibody; binds at the N-terminus, not considered a ligand blocker; HC SEQ ID NO: 39, LC SEQ ID NO: 40 (antibody, Synthetic: HC AA; Synthetic: LC AA) heavy: EVQLLESGGGLVQPGGSLRLSCAASGFTFSSYAMSWVRQAPGKGLEWVSAISGSGTSTYYADSVKGRFTISRDNSKNTLYLQMNSLRAEDTAVYYCARVRYNWNHGDWFDPWGQGTLVTVSS[human IgG1 constant region not printed] light: QSVLTQPPSASGTPGQRVTISCSGSSSNIGNNYVSWYQQLPGTAPKLLIYENYNRPAGVPDRFSGSKSGTSASLAISGLRSEDEADYYCSSWDDSLNYWVFGGGTKLTVLGQPKAAPSVTLFPPSSEELQANKATLVCLISDFYPGAVTVAWKADSSPVKAGVETTTPSKQSNNKYAASSYLSLTPEQWKSHRSYSCQVTHEGSTVEKTVAPTECS",FGF7-induced FGFR phosphorylation,FGF7 10 ng/ml,did not result in down-regulation
same,FGF10-induced FGFR phosphorylation,FGF10 10 ng/ml,did not result in down-regulation
